Measured values as given in the RNAGym collection of RNA variant scans (doi:10.1093/nar/gkz1192).
The source gives no read counts; variants with many changes may rest on few reads.

B1: CPEB3 Ribozyme (parent)
chain: UAACAGGGGGCCACAGCAGAAGCGUUCACGUCGCAGCCCCUGUCAGAUUCUGGUGAAUCUGCGAAUUCUGCUGUAUAUCUC

Variants of: B1
Experiment: self-cleavage, relative activity (ratio to wild type); higher = more cleavage; in vitro, sequencing
Summary of the method: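 Relative activity compares each variant's cleaved/total read fraction with that of the unmutated ribozyme. To get these fractions, barcoded CPEB3 ribozyme libraries from rounds of error-prone PCR were transcribed with T7 RNA polymerase for 5 hours at 37°C and then given 15 min of DNase I treatment before EDTA was added. The RNAs were reverse transcribed with template switching and sequenced on Illumina, and DNA sequencing linked barcodes to variants. A minimum of 5 reads applied, and three batches were averaged.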

| Variant | self-cleavage |
| --- | --- |
| UGACAGGGGGCCACAGCAGAAGCGUUCACAUCGCGGCCCCUGGCAGAUUCUGGUGAAUCUGCGAAUUCUGCUGUAUAUCUC [A2G G30A A35G U43G] | 0.26 |
| UGACAGGGGGCCACAGCAGAAGCGUUCACGCCGCAGCCCCUGUCAGUUUCUGGUGAAUCUGCGAAUUCUGCUGUACAUCUC [A2G U31C A47U U76C] | 0.27 |
| UGACAGGGGGCCACAGCAGAAGCGUUCACCUCGCAGCCCCUGUCACAUUCUGGUGAUUCUGCAAAUUCUGCUGUAUAUCUC [A2G G30C G46C A57U G63A] | 0.18 |
| UGACAGGGGUCCACAGCAGAAGCGUUCACGUCGCAGCCCCUGUCAGAUUAAGGUGAAUCUGCGAAUUCUGCUAUAUACCUC [A2G G10U C50A U51A G73A U78C] | 0.28 |
| UGACAGGGGGCCACAGCAGAAGCGUUCACGACGCAGCCCCUGUCAGAUUCUGGUGAAUCUGCGAAUUCUGCUGUAUAUCCC [A2G U31A U80C] | 0.5 |
| UGACAGGGUGCCACAGCAGAAGCGCUCACGUCGCAGCCCCUGUCAGAUUCUGGUGAAUCUGCGAAUUCUGCUGUAUAUCUC [A2G G9U U25C] | 0.29 |
| UGACAGGGGGCCACAGCAGAAGCGUUCACAUCGCAGCCCCUGUCAGAUUCUGGUGAAUCUGCGAAUCCUGCUGUAUAUGUC [A2G G30A U67C C79G] | 0.05 |
| UGACAGGGGGCCACAGCAGAAGCGCUCACGUCGCAGCCCCUGUCGUAUACUGGUGAAUCUGCGAAUCCUGCUGUAUAACUC [A2G U25C A45G G46U U49A U67C U78A] | 0.19 |
| UGACAGGGGGCCACAGCAGAAGCGUUCACAUCGCAGCCCCUGUCUGAUUCUGGUGAAUCUGCGAAUUCUGCUGUAUAUCUC [A2G G30A A45U] | 0.27 |
| UGACAGGGAGCCACAGCUGAAGCGUUCACGUCGCAGCCCCUGUCAGAUUCUGGUGUAUCUGCGAAUUCUGCUGUAUAUCUC [A2G G9A A18U A56U] | 0.07 |
| UGACAGGGGGCCACAGCAGAAGCGUCCACGUCGGAGCCCCUGUCAGGUUCUGGUGAAUCUGCGAAUUCUGCUGUAUAUCUC [A2G U26C C34G A47G] | 0.44 |
| UGACAGUGGGCCAUAGCAGAAGCGUUCACGUCGCAGCCCCUGUCAGAUUCUGGUGAAUCUGCGAAUUCUGCUGCAUAUCUC [A2G G7U C14U U74C] | 0.1 |
| UGACAGGGGGCCACAGCAGAAGCGUACACGCCGCAGCCCCUGUCAGGUUCUGGUGAAUCUGCGAAUUCUGCUGUAUAUCUC [A2G U26A U31C A47G] | 0.37 |
| UGACAGGGGGCCACAGCAGAAGCGUUCACGUCCCAGCCCCUGUCGGAUUCUAGUGUAUCUGCGAAUUCUGCUGUAUAUCUC [A2G G33C A45G G52A A56U] | 0.16 |
| UGACAGGGGGCCACACCAGAAGCGUUCACGACGCUGCCCCUGUCAGAUUCUGGUGGAUCUGCGAAUUCUGCUGUAUAUCUC [A2G G16C U31A A35U A56G] | 0.09 |
| UGACAGGGGGCCACAGCAGAAGCGUUCACGUCGCAGCCCCCGUCAGAUUCUGGUGGAUCAGCGAAUUCUGCUGUAUACCUC [A2G U41C A56G U60A U78C] | 0.16 |
| UGACAGGGGGCCACAGCAGAAGCGCUCACGUCGCAGCCCCUGUCGGAUACUGGUGAAUCUGCGAAUCCUGCUGUAUAACUC [A2G U25C A45G U49A U67C U78A] | 0.22 |

| Variant | self-cleavage |
| --- | --- |
| UGACAGGGGGCCACAGCAGAAGCGUCCCCGUCGCAGCCCCUGUCAGAUUCCGGUGAAUCUGCGAUUCCUGCUGUUUAUCUC [A2G U26C A28C U51C A65U U67C A75U] | 0.08 |
| UGACAGGGGGCCACAGCAGAAGCGUCCACGUCGCAGCCCCUGUCAGAUUCUGGCGUAUCUGCGAAUUCUGCUGUAUAUCCC [A2G U26C U54C A56U U80C] | 0.16 |
| UGACAGGGGGCCACAGCAGAAGCGUCCACGUCGCAGCCUCUGCCAGAUUCUGGUGAAUCUGCGAAUUCUGCUGUAUACCCC [A2G U26C C39U U43C U78C U80C] | 0.04 |
| UGACAGGGGGCCACAGCAGAAGCGUUCACGUCGCAGCCCCUGCCAGAUUCUGGUGAGUCUGCGAAUUCUGCUGUAUAUCUC [A2G U43C A57G] | 0.36 |
| UGACAGGGGGCCACAGCAGAAGCGAUCACGUCGCAGCCCCCGUCAGAUUCUGGUGAAACUGCGAAUUCUGCCGUAUAACUC [A2G U25A U41C U58A U72C U78A] | 0.06 |
| UGACAGGGGGCCACAGCAGAAGCGUUCACGACGCAGCCCCUGUCAGAUUCUGGUGAAUCUGCGAAUCCUGCUGUAUAUCUC [A2G U31A U67C] | 0.3 |
| UGACAGGGGGCCACAUCAGAAGCGUUCACGUCGCAGCCCCUGUCAGAUCCUGGUGUACCUGCGAAUUCUGCUGUAUAUCUC [A2G G16U U49C A56U U58C] | 0.11 |
| UGACAGGAGGCCACAGCAGAAGCGUUCACGUCGCAGCCCCUGUCAGAUUCUGGUGAAUCUGCGAAUUCUGCUGUAUAUCAC [A2G G8A U80A] | 0.08 |
| UGACAGGGGGCCACAUCGGAAGCGCUCACGUCGCAGCCCCUGUCAGAUUCUGGUGAAUCUGCGAAUUCUGCUGUAUACCUC [A2G G16U A18G U25C U78C] | 0.39 |
| UGACAGGGUGCCACAGCAGAAGCGUUCACGUCGCUGCCCCUGUCAGAUUCUGGUGAAUCUGCGAAUUCUGCUGUAUAUCUC [A2G G9U A35U] | 0.25 |
| UGACAGGUGGCCACAGCAGAGGCGUUCACGUCGCAGCCCCUGUCAGAUUCUGGUGAAUCUGCGAAUUCUGCUGUAUAUCUC [A2G G8U A21G] | 0.06 |
| UGACAGGGGACCACAGCAGAAGCGUUCACGUCGCAGCCCCUGUCAGAUUCUGGUGAAUCUGCGGAUUCUGCUGUAUAUCUC [A2G G10A A64G] | 0.31 |
| UGACAGUGGGCCACAGCAGCAGCGUUCACGUCGCAGCCCCGGUCAGAUUCUGGUGAAUCUGCGAAUACUGCUGUAAAUCUC [A2G G7U A20C U41G U67A U76A] | 0.03 |
| UGACAGGCUGCCACAGCUGAAGCGUUCACGUCGCAGCCCCUGUCAGAUUCUGGUGAAUCUGCGAAUUCUGCUGUGUAUCUC [A2G G8C G9U A18U A75G] | 0.46 |
| UGACAGGGGGCCACAGCAGAAGCGUCCACGUCGCAGCCCCUGUCAGAUUCUGGUGAAUCUGCGGAUUCUGUUGUAUAUCCC [A2G U26C A64G C71U U80C] | 0.32 |
| UGACAGGGGGCCACAGCAGAAGCGUUCACGUCGCAGCCCCAGUCAGGUUCAAGUGAAUCUGCGAAUUCUGCUGUAUAUCUC [A2G U41A A47G U51A G52A] | 0.11 |
| UGACAGGGGGCCACAGCAGAAGCGUUCACGUCGCAGCCCCAGUCAGAUUCUGGUGAAUCUGCGAAUUCUGCAGUAUAUCUC [A2G U41A U72A] | 0.37 |
